# About 14,000 (4.5%) of roughly 310,000 compounds showed an effect of 50% or more. The effect is printed as a negative number. The list shows a part of the results.
# Molecular target: human ether-à-go-go-related gene (hERG) potassium channel (human, UniProt Q12809)
# Assay: primary screen, population patch clamp on CHO cells stably expressing hERG
# 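Note: peak tail current of the secondary pulse compared with the same well before compound.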
# human ether-à-go-go-related gene (hERG) potassium channel, sequence (Q12809 whole entry, looked up): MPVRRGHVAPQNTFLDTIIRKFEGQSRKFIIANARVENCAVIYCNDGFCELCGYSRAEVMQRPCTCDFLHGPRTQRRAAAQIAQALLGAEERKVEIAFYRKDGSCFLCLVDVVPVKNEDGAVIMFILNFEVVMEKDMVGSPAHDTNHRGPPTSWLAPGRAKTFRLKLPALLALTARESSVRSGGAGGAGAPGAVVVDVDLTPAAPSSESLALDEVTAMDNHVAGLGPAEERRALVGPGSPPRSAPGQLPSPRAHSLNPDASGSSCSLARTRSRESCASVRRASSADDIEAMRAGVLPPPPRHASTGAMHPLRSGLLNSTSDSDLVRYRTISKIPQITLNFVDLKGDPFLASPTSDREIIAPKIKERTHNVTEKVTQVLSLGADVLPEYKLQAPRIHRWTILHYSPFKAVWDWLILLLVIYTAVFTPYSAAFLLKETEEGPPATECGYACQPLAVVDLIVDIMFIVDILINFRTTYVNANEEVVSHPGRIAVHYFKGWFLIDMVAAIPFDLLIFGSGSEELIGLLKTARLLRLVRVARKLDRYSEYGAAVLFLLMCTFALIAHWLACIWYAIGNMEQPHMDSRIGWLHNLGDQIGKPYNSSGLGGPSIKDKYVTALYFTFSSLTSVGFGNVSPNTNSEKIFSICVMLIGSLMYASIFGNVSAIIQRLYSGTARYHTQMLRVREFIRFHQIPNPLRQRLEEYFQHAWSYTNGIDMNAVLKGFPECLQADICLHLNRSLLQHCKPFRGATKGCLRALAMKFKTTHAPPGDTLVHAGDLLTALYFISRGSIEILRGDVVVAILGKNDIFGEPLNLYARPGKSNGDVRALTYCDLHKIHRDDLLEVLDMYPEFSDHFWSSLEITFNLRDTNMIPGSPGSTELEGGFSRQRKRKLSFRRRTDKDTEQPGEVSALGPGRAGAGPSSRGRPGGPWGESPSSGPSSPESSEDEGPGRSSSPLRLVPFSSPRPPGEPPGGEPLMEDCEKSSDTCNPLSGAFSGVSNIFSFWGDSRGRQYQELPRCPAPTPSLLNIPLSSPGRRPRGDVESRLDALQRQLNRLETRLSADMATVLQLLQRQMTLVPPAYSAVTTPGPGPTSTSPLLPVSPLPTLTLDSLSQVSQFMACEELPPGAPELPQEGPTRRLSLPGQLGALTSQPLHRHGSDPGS
row,Structure (SMILES),"hERG current change (%, negative = inhibition) at 10uM"
1,COC(=O)C1=C(C)N(Cc2ccccc2)C(=S)N[C@H]1c1ccccc1,-2.64%
2,Nc1cc(=O)[nH]c(SCC(=O)Nc2cccc(Cl)c2)n1,1.17%
3,Cc1ccc(S(=O)(=O)N(C)C)cc1NC(=O)COC(=O)c1n[nH]c(=O)c2ccccc12,-49.8%
4,CN(C)S(=O)(=O)c1ccc(C(=O)OCC(=O)c2ccc(OC(F)F)cc2OC(F)F)cc1,-3.97%
5,Cc1cc(C)n(/N=C/c2ccc(O)cc2)c(=O)c1C#N,17.1%
6,O=C(NC1CCC1)C1CCC(=O)N(Cc2cccc(F)c2)C1 (stereo not shown),-3.14%
7,O=C(COC(=O)CCC(=O)c1ccccc1)Nc1nnc(-c2ccccc2)o1,5.91%
8,Cc1ccc(Cl)cc1NC(=O)COc1ccccc1,8.86%
9,O=C(CN1CCCC1c1cccs1)N1CCN(S(=O)(=O)c2cccc(F)c2)CC1 (stereo not shown),-19%
10,COC/C=C/C1=CC2=CC(=O)C(C)(OC(=O)c3cnc4ccccc4n3)C(=O)C2=CN1CCN1CCOCC1 (stereo not shown),15%
11,COc1ccccc1NC(=O)CSc1nnc(C2CCCCC2)n1-c1ccccc1,-31.3%
12,CC(C)(C)C(=O)Nc1ccc(C(=O)Nc2cccnc2)cc1,10.4%
13,Cc1cc(Cl)ccc1C(=O)C1CCCN(C(=O)c2cnn(C(C)C)c2)C1 (stereo not shown),-17.7%
14,C/C(=N/NC(=O)c1ccc(Br)o1)c1cccc(NC(=O)c2ccc(F)cc2)c1,-58.9%
15,CN1CCN(/N=C/c2ccc(OCc3ccccc3)cc2)CC1,-21.9%
16,CN(C)N=C1c2cc(S(=O)(=O)N3CCOCC3)ccc2-c2ccc(S(=O)(=O)N3CCOCC3)cc21,-0.734%
17,Cc1ccc(S(=O)(=O)N2CCN(C(=O)CCC(=O)N3CCc4ccccc43)CC2)cc1,-62.2%
18,COc1ccc(CSCCN)cc1Cl.Cl,6.78%
19,Cc1cccc(Oc2ccc(NS(=O)(=O)c3ccc(C)c(C(=O)O)c3)cc2)c1,4.58%
20,COc1ccc(/C=C/C(=O)OCC(=O)Nc2ccc3[nH]c(=O)[nH]c3c2)cc1OC,-5.5%
21,C/C(=N\NC(=O)c1ccoc1C)c1ccccc1O,-35.1%
22,COc1ccc2oc(C(=O)OCC(=O)N3CCCC(C)C3)c(C)c2c1 (stereo not shown),-39.4%
23,CSc1ccccc1C(=O)Nc1ccc2c(c1)OCO2,1.15%
24,Cc1ncoc1C(=O)N1CCc2c([nH]c3ccccc23)C1c1ccccc1F (stereo not shown),-21.3%
25,COc1cc(C(=O)NNC(=O)Nc2ccc([N+](=O)[O-])cc2)cc(OC)c1OC,5.5%
26,CN(c1ccccc1)S(=O)(=O)c1cccc(C(=O)NNC(=O)c2ccccc2)c1,-1.79%
27,COc1cc(S(=O)(=O)Nc2ccc(C)cc2)ccc1NC(=O)c1ccncc1,-19.7%
28,Cc1c(C(=O)O)c(=O)n(-c2ccccc2)n1-c1ccccc1,-4.59%

row,Structure (SMILES),"hERG current change (%, negative = inhibition) at 10uM"
1,NC(N)=N/N=C/c1ccc(Cl)c([N+](=O)[O-])c1,-38.6%
2,c1ccc(-c2ccc3c(n2)CCCO3)cc1,-5.08%
3,CCOC(=O)CSc1nnc(C)n1N,11.5%
4,CCC(=O)N1CCc2cc(S(=O)(=O)CCC(=O)NCCc3ccccc3)ccc21,5.88%
5,Cc1noc(/C=C/N(C)C)c1S(=O)(=O)N1CCCC(C(=O)Nc2ccc3c(c2)OCO3)C1 (stereo not shown),8.23%
6,CCO[C@@H]1OC(C(=O)NCc2ccccc2)=C[C@H](C(C)(C)C)[C@H]1CCCO,-10.5%
7,N#Cc1ccccc1NC(=O)COC(=O)CCc1ccccc1,-14.9%
8,Cc1ccc(C)c(N(C(=O)Cn2nnc(-c3cccs3)n2)C(C(=O)NC2CCCC2)c2ccncc2)c1 (stereo not shown),7.32%
9,COc1ccc([C@H]2CC(=O)C=C(c3cccc4c3sc3ccccc34)C2)cc1OC,10.6%
10,CP(=O)(Nc1ccccc1)C(Cl)(Cl)Cl (stereo not shown),13.8%
11,COc1c(/C=N/NC(=O)c2ccncc2)c(CCN(C)C(C)=O)cc2c1OCO2,11.8%
12,CC(C)CCOP(=O)(c1ccccc1)c1ccccc1,-16.8%
13,O=C1Nc2cc(Cl)ccc2C1(N1CCNCC1)C(F)(F)F (stereo not shown),-10.6%
14,COc1ccc(-n2nc3c(c2NC(=O)c2ccc(Br)o2)CS(=O)(=O)C3)cc1,-16.4%
15,CCCc1[nH]nc2c1C(c1cccnc1)C(C#N)=C(N)O2 (stereo not shown),7.87%
16,CCOC(=O)C1(CCCc2ccccc2)CCN(C(=O)CCCn2cncn2)CC1,-44.1%
17,COc1ccc(-c2cn3cccnc3n2)cc1NC(=O)C1CC1,-13.1%
18,Cc1cnc(C(=O)Nc2nnc(C)s2)cn1,8.05%
19,COCC(=O)Nc1cc(OC)cc(OC)c1,0.286%
20,O=[N+]([O-])c1ccc(C(O)CN2CCN(Cc3ccccc3)CC2)cc1 (stereo not shown),-73.4%
21,Cc1ccc(N2C(=O)C3C4C=CC(CNC(=S)N5CCN(c6ccccn6)CC5)(O4)C3C2=O)cc1 (stereo not shown),-5.41%
22,O=C(NNC(=O)c1ccccc1-c1ccccc1C(=O)O)c1cccc([N+](=O)[O-])c1,-22.1%
23,CC(C)c1ccccc1OCC(=O)N(C)CC(=O)Nc1ccc(F)cc1,-28.1%
24,CCOc1ncccc1C(=O)OCC(=O)N(CC(C)C)C1CCS(=O)(=O)C1 (stereo not shown),3.36%
25,COc1ccc(C(=O)COC(=O)C(CC(C)C)N2C(=O)c3ccccc3C2=O)cc1 (stereo not shown),-5.93%
26,COc1cc(NC(=O)c2ccco2)ccc1NC(=O)c1ccccc1Cl,-15.4%
27,CCOC(=O)C(C)On1c(-c2ccccc2)nc2ccc([N+](=O)[O-])cc21 (stereo not shown),-51.3%
